# From the supplement of paper PMC8728848
# The list shows a part of the results.
# B1: DC-ASGPR Long (Homo sapiens) (protein)
# chain: MTRTYENFQYLENKVKVQGFKNGPLPLQSLLQRLRSGPCHLLLSLGLGLLLLVIICVVGFQNSKFQRDLVTLRTDFSNFTSNTVAEIQALTSQGSSLEETIASLKAEVEGFKQERQAGVSELQEHTTQKAHLGHCPHCPSVCVPVHSEMLLRVQQLVQDLKKLTCQVATLNNNASTEGTCCPVNWVEHQDSCYWFSHSGMSWAEAEKYCQLKNAHLVVINSREEQNFVQKYLGSAYTWMGLSDPEGAWKWVDGTDYATGFQNWKPGQPDDWQGHGLGGGEDCAHFHPDGGWNDDVCQRPYHWVCEAGLGQTSQESH
# How the values were obtained:
# Experiment in all cases: glycan array binding signal (z-score within array); higher = stronger binding
# Settings in all cases: glycan notation: IUPAC condensed, linker removed
# [1] = target: GlcNAc(a1-6)Gal(b1-4)GlcNAc
# Summary of the method: (§1)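 Glycan array data were curated from 3228 arrays in the Consortium for Functional Glycomics database and kept only where the protein sequence was available. Glycan names were converted to IUPAC-condensed notation, and columns mapping to the same glycan were averaged. The binding signal is a within-array Z-score, averaged across arrays of the same protein sequence at different concentrations or buffers and across linkers. Negative Z-scores can be read as non-binding.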
# [2] = target: GlcNAc(b1-2)Gal(b1-3)GalNAc
# Summary of the method: as §1
# [3] = target: GlcNAc(b1-2)Man(a1-3)[GlcNAc(b1-2)Man(a1-6)]Man(b1-4)GlcNAc(b1-4)GlcNAc
# Summary of the method: as §1
# [4] = target: GlcNAc(b1-2)Man(a1-3)[GlcNAc(b1-2)Man(a1-6)]Man(b1-4)GlcNAc(b1-4)[Fuc(a1-6)]GlcNAc
# Summary of the method: as §1
# [5] = target: GlcNAc(b1-2)Man(a1-3)[GlcNAc(b1-4)][GlcNAc(b1-2)Man(a1-6)]Man(b1-4)GlcNAc(b1-4)GlcNAc
# Summary of the method: as §1
# [6] = target: GlcNAc(b1-2)Man(a1-3)[GlcNAc(b1-4)][GlcNAc(b1-2)Man(a1-6)]Man(b1-4)GlcNAc(b1-4)[Fuc(a1-6)]GlcNAc
# Summary of the method: as §1
# [7] = target: GlcNAc(b1-2)[GlcNAc(b1-4)]Man(a1-3)[GlcNAc(b1-2)Man(a1-6)]Man(b1-4)GlcNAc(b1-4)GlcNAc
# Summary of the method: as §1
# [8] = target: GlcNAc(b1-2)[GlcNAc(b1-4)]Man(a1-3)[GlcNAc(b1-4)][GlcNAc(b1-2)Man(a1-6)]Man(b1-4)GlcNAc(b1-4)GlcNAc
# Summary of the method: as §1
# [9] = target: GlcNAc(b1-2)[GlcNAc(b1-4)]Man(a1-3)[GlcNAc(b1-4)][GlcNAc(b1-2)[GlcNAc(b1-6)]Man(a1-6)]Man(b1-4)GlcNAc(b1-4)GlcNAc
# Summary of the method: as §1
# [10] = target: GlcNAc(b1-2)[GlcNAc(b1-4)]Man(a1-3)[GlcNAc(b1-4)][GlcNAc(b1-2)[GlcNAc(b1-6)]Man(a1-6)]Man(b1-4)GlcNAc(b1-4)[Fuc(a1-6)]GlcNAc
# Summary of the method: as §1
# [11] = target: GlcNAc(b1-2)[GlcNAc(b1-6)]Man(a1-6)[GlcNAc(b1-2)Man(a1-3)]Man(b1-4)GlcNAc(b1-4)GlcNAc
# Summary of the method: as §1
# [12] = target: GlcNAc(b1-2)[GlcNAc(b1-6)]Man(a1-6)[GlcNAc(b1-2)Man(a1-3)]Man(b1-4)GlcNAc(b1-4)[Fuc(a1-6)]GlcNAc
# Summary of the method: as §1
# [13] = target: GlcNAc(b1-2)[GlcNAc(b1-6)]Man(a1-6)[GlcNAc(b1-4)][GlcNAc(b1-2)Man(a1-3)]Man(b1-4)GlcNAc(b1-4)GlcNAc
# Summary of the method: as §1
# GlcNAc(b1-3)Fuc = target: GlcNAc(b1-3)Fuc
# Summary of the method: as §1
# GlcNAc(b1-3)Gal = target: GlcNAc(b1-3)Gal
# Summary of the method: as §1
# [14] = target: GlcNAc(b1-3)Gal(b1-3)GalNAc
# Summary of the method: as §1
# GlcNAc(b1-3)Gal(b1-4)Glc = target: GlcNAc(b1-3)Gal(b1-4)Glc
# Summary of the method: as §1
# [15] = target: GlcNAc(b1-3)Gal(b1-4)GlcNAc
# Summary of the method: as §1
binder,measurement,setting,value
B1,glycan array binding signal (z-score),[1],-0.441
same,glycan array binding signal (z-score),[2],-0.299
same,glycan array binding signal (z-score),[3],0.282
same,glycan array binding signal (z-score),[4],-0.319
same,glycan array binding signal (z-score),[5],-0.323
same,glycan array binding signal (z-score),[6],-0.117
same,glycan array binding signal (z-score),[7],-0.304
same,glycan array binding signal (z-score),[8],-0.122
same,glycan array binding signal (z-score),[9],-0.298
same,glycan array binding signal (z-score),[10],0.032
same,glycan array binding signal (z-score),[11],5.41
same,glycan array binding signal (z-score),[12],0.235
same,glycan array binding signal (z-score),[13],-0.509
same,glycan array binding signal (z-score),GlcNAc(b1-3)Fuc,-0.422
same,glycan array binding signal (z-score),GlcNAc(b1-3)Gal,-0.203
same,glycan array binding signal (z-score),[14],-0.434
same,glycan array binding signal (z-score),GlcNAc(b1-3)Gal(b1-4)Glc,-0.353
same,glycan array binding signal (z-score),[15],-0.433
